Data from PMC4336329 (PLoS ONE, 2015).
In all, about 310,000 compounds went through this assay and about 2,200 (0.71%) showed an effect of 50% or more. Effects have a minus sign here. The list shows a part of the results.

target: human ether-à-go-go-related gene (hERG) potassium channel (human, UniProt Q12809); assay: primary screen, population patch clamp on CHO cells stably expressing hERG
Sequence (Q12809 whole entry, looked up): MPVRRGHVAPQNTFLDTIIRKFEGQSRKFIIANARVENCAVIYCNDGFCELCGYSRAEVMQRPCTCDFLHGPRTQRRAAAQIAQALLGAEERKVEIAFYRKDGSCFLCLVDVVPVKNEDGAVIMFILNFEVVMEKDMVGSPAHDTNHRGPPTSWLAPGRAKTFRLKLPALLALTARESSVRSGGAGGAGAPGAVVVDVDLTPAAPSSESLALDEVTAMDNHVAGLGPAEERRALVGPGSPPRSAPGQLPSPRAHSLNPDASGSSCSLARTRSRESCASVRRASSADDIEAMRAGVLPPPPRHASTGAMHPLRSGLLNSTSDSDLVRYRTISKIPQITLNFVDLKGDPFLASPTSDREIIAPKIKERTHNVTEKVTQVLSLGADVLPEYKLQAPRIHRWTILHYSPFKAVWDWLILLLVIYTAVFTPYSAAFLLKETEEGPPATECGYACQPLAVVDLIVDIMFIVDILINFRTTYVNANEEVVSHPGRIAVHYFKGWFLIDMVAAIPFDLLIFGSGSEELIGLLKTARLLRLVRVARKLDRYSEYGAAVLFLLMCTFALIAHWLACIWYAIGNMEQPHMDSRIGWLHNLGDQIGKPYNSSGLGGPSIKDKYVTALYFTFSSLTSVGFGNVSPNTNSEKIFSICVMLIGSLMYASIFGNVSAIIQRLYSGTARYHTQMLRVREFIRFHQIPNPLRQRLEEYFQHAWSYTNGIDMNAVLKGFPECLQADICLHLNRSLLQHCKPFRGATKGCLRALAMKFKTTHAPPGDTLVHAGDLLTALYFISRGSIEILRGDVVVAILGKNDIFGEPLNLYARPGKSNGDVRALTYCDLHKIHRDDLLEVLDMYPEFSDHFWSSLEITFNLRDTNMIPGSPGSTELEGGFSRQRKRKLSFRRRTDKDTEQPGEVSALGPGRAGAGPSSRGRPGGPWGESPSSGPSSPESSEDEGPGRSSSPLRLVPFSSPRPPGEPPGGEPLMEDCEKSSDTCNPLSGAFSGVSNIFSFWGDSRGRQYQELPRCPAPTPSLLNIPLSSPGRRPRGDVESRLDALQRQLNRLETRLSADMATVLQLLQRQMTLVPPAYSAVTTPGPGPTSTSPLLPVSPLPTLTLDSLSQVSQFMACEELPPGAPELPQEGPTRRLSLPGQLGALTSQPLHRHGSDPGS

Compound	hERG current change (%, negative = inhibition) at 1uM
Cc1cc(C)c2c(CN3CCN(Cc4ccccc4)CC3)cc(=O)oc2c1.Cl	-22.2%
Cn1ccnc1SCCNC(=O)C1CCC(=O)N(Cc2ccc(Cl)cc2)C1 (stereo not shown)	0.779%
CC1CN(Cc2cc(=O)[nH]c(C3CC3)n2)CC(C)O1 (stereo not shown)	11.2%
O=C(COc1ccc([N+](=O)[O-])cc1)Nc1ccc(CN2CCOCC2)cc1	-32.9%
O=C(Cn1c(=O)oc2cc(S(=O)(=O)N3CCCC3)ccc21)N1CCN(c2ccccc2)CC1	7.36%
Cc1cccc(N(C)C(=O)CCS(=O)(=O)c2cccc3nonc23)c1	0.162%
CC(C)Cn1c(=O)c2ccccc2n2c(CCC(=O)NC3CCN(Cc4ccccc4)CC3)nnc12	2.71%
Cc1cccc(N2C(=O)CC(N3CCOCC3)C2=O)c1 (stereo not shown)	10.9%
COc1ccc(NCc2ccsc2)cc1	14.3%
COc1ccc(NC(=O)CN(C)C(=O)C(CCSC)NC(=O)c2ccccc2)cc1 (stereo not shown)	13.8%
CNC(=O)NC1CCCc2ccccc21 (stereo not shown)	10.3%
Cc1cc(NC(=O)c2cncc(Br)c2)no1	14.6%
CCC(C)N1C(=O)CN(C2CCCCCC2)C(=O)C1c1ccccc1F (stereo not shown)	17.4%
COc1ccc(NC(=O)Cn2nnc(-c3ccccc3N)n2)cc1OC	7.36%
Cc1cc(C)cc(NC(=O)c2ccc(CNc3c(N4CCOCC4)c(=O)c3=O)cc2)c1	10.5%
O=C(CC1Oc2ccc(Cl)cc2NC1=O)NC1CCCCCC1 (stereo not shown)	6.95%
CCN1CCN(c2nc(Nc3ccccc3)nc(N)c2[N+](=O)[O-])CC1	-13.3%
CC(C)(C)c1cc(CNC2CS(=O)(=O)C[C@@H]2O)cc(C(C)(C)C)c1O (stereo partly shown)	12.7%
COc1cc(Cl)ccc1S(=O)(=O)n1nc(C)cc1C	11.2%
CC(=O)OCC(=O)[C@@]12OC(C)(C)O[C@@H]1C[C@H]1[C@@H]3C[C@H](F)C4=CC(=O)C=C[C@]4(C)[C@@]3(F)[C@@H](O)C[C@@]12C	14.8%
Cc1oc(C)c(C(=O)Nc2ccc(CC(=O)O)cc2)c1C(=O)Nc1ccc(CC(=O)O)cc1	11.9%
N#CC1=C(Nc2ccccc2)SC=C(c2ccc(F)cc2)N=C1N1CCOCC1	2.35%
COC(=O)C1=C[C@@H](C(=O)OC)[C@@H]2C3=C(C(=O)[C@@]2(C)NC(=O)c2ccccc2)[C@H](C)C(C(=O)OC)=C(C(=O)OC)[C@@H]3C1	13.1%

Compound	hERG current change (%, negative = inhibition) at 1uM
O=C1CCN(Cc2ccccc2)S(=O)(=O)c2c(F)cc(F)cc21	5.65%
COc1ccccc1/C=C\C=N\n1c(C2CCCCC2)n[nH]c1=S	5.27%
O=C(Nc1nc2c(s1)CCCC2)Oc1ccccc1	12.8%
Cc1ccc(NC(=O)CCn2cccc2)cc1	18.9%
Cc1ccc(C(=O)NC(=S)N2CCN(C(=O)OC(C)(C)C)CC2)cc1Br	11.7%
COc1ccc(/C(O)=C2/C(=O)C(=O)N(c3ncccn3)C2c2ccc(OC)cc2)cc1 (stereo not shown)	13.6%
COC(=O)c1ccc(OC(=O)N2CCOCC2)cc1	11.3%
Nc1cc(N)cc(C(=O)Nc2ccc3c(c2)C(=O)NC3=O)c1	8.22%
CCCOCCc1nnc(N)s1	16.7%
C=C(C)CNC(=S)N/N=C(\C)c1ccc(-n2ccnc2)cc1	-7.94%
O=C(Cc1ccccc1)NCC(=O)OCc1ccccc1F	12.6%
CCSc1nnc(NC(=O)CSc2nnc(C)c(=O)n2N)s1	12.9%
O=C(NC(Cc1ccc2c(c1)OCO2)C(=O)NC(Cc1ccccc1)C(=O)O)c1ccccc1 (stereo not shown)	9.34%
CC(OC(=O)C1CCN(c2ccc(C(F)(F)F)cn2)CC1)C(=O)NC1CCCCC1C (stereo not shown)	-5.7%
CCN1C(=O)/C(=C2\SC(=S)N(c3c(C)n(C)n(-c4ccccc4)c3=O)C2=O)c2ccccc21	6.3%
N#Cc1ccccc1NC1=CC(=O)CCC1	5.61%
COc1ccccc1-n1c(SCC(=O)N2CCOCC2)nc2ccccc2c1=O	12%
Cc1ccc(C2=NS(=O)(=O)N(C)C(C(=O)NCc3ccccc3)=C2)cc1	9.25%
COc1cc(C(O)CNC(C)C)cc(F)c1OC (stereo not shown)	5.66%
Cc1ccsc1/C=C1\SC(=S)N(CC2CCCO2)C1=O (stereo not shown)	-0.84%
O=C(/C=C/c1ccco1)Nc1ccc(S(=O)(=O)N2CCOCC2)cc1	8.3%
COC(=O)COc1cccc(NC(=O)COc2ccccc2)c1	13.1%
CC(NC(=O)C1CCC(C)(C(=O)O)C1(C)C)c1ccccc1 (stereo not shown)	13.8%

Compound	hERG current change (%, negative = inhibition) at 1uM
O=C(CSc1ccccn1)Nc1ccc2[nH]c(=O)[nH]c2c1	9.65%
CC(=O)c1ccc(N=Nc2ccc(N)cc2)cc1	11.4%
CCN=C1S/C(=C\c2ccc(Sc3ccc(Cl)cc3)o2)C(=O)N1CC	-3.54%
COc1ccc(C2C=C(c3ccccc3)Nc3nnnn32)cc1 (stereo not shown)	13.2%
O=C(Nc1nonc1NC(=O)c1cccs1)c1cccs1	6.81%
Cn1c(=O)[nH]c(=O)c2c1nc(SCC(O)CCl)n2Cc1ccccc1 (stereo not shown)	1.74%
CC(=O)Nc1nc(C)c(Cc2ccccc2)c(=O)[nH]1	2.35%
Clc1ccc(SCNc2ccccc2Cl)cc1	15.7%
CCOC(=O)C1CCN(S(=O)(=O)c2ccc3c(c2)N(C(C)=O)CC(C)S3)CC1 (stereo not shown)	-15.6%
CN(C(=O)COC(=O)/C=C/c1ccc(F)cc1)c1c(N)n(Cc2ccccc2)c(=O)[nH]c1=O	5.04%
O=C(CCc1ccccc1)NCc1ccc(F)cc1	6.51%
O=C(CCCOc1ccccc1)N1CCN(C(=O)c2ccco2)CC1	-5.16%
Cc1ccc2[nH]c(=O)c(CN(CCCN(C)C)C(=O)Nc3cccc(Cl)c3)cc2c1	-26.3%
COc1cccc(N2CCN(C(=O)Cn3c(=O)oc4ccccc43)CC2)c1	4.28%
Cc1ccc(-c2[nH]c3cc(C(N)=O)ccc3c(=O)c2O)cc1	16.6%
Oc1ccccc1-c1cc(-c2ccc(Cl)cc2)n[nH]1	15%
COc1cc(C2C3=C(CC(C)(C)CC3=O)N(C)C(=O)N2C)cc(OC)c1OC (stereo not shown)	11.8%
CCS(=O)(=O)N1CCN(c2ccc([N+](=O)[O-])c(NCC3CCCO3)c2)CC1 (stereo not shown)	4.52%
CCN(CC)C(=O)C(Oc1ccc(S(=O)(=O)N2CCCC2)cc1[N+](=O)[O-])c1ccccc1 (stereo not shown)	10.9%
COc1cccc(C(C(=O)NC2CCCCC2)N(Cc2ccco2)C(=O)c2ccccn2)c1 (stereo not shown)	9.22%
COc1ccccc1C(=O)O/N=C(\N)c1ccc(Cl)cc1	-5.06%
CCOC(=O)c1sc(=S)n(C)c1C	11.3%
COc1ccc(CCN(C)C(=O)C23CC4CC(CC(Cl)(C4)C2)C3)cc1OC	6.42%

Compound	hERG current change (%, negative = inhibition) at 1uM
COc1ccc(CC(=O)NNS(=O)(=O)c2ccc(F)cc2)cc1OC	9.99%
S=c1[nH]ncn1-c1ccccn1	5.37%
Cc1ccc(C(=O)NCCN2CCOCC2)cc1	16.3%
Cc1ccc(S(=O)(=O)N2CCN(Cc3cc(=O)n4ccccc4n3)CC2)cc1C	0.238%
CCOC(=O)c1[nH]c2ccccc2c1NC(=O)CN1CCCCC1	-5.66%
COc1ccccc1CNC(=O)COC(=O)Cc1ccc(F)cc1	8.2%
Cc1cccc(N2C(=O)CC(N3CCN(C(=O)c4ccccc4)CC3)C2=O)c1 (stereo not shown)	11.1%
O=C(NCCN1CCOCC1)c1cn(CCc2ccccc2)nn1	1.7%
Cc1ccc(-c2noc(CCCC(=O)Nc3cccnc3)n2)cc1	-3.19%
CS(=O)(=O)Nc1ccc(C2=NN(S(C)(=O)=O)C(c3cccs3)C2)cc1 (stereo not shown)	-16.1%
CN(c1ccc(C(=O)Nc2ccccc2Sc2ccccc2)cc1)S(C)(=O)=O	-5.55%
CCOC(=S)SCC(=O)N1CCc2ccccc2C1C1C(=O)CCCC1=O (stereo not shown)	15.6%
COc1ccc(OC)c(C(O)C2CCCCN2)c1.Cl (stereo not shown)	14.3%
O=C(NCC1CC1)c1ccccc1Cl	13.5%
Cc1cc(C)cc(OCC(=O)Nc2ccncc2)c1	13.6%
Cc1ccc(S(=O)(=O)NCCC(=O)N2CCCC(C)C2)cc1 (stereo not shown)	-29.5%
CC(=O)NN1C(=O)c2ccccc2NC1c1ccco1 (stereo not shown)	7.36%
O=C(Nc1ccc(SC(F)F)cc1)c1cccc2nc3ccccc3nc12	9.75%
Cc1ccc(NC(=O)C2CC3CCC2C3)c(Br)c1 (stereo not shown)	13.4%
CCOC(=O)CCn1nc(-c2ccc(C)cc2)c2ccccc2c1=O	6.09%
Cc1cccc(NC(=O)CSc2nc3c(oc4ccccc43)c(=O)n2-c2ccccc2)c1	5.53%
CS(=O)(=O)N(Cc1ccccc1)c1ccccc1C(=O)N1CCN(c2ccccc2)CC1	11.7%
